Test results reported in PubChem BioAssay AID256 (DTP/NCI, 2004).
“And” between values parts separate entries of the source, which are not always exact repeats. Equal values may be shown once. Further values from the same series stand in other lists. Toxic doses and inconclusive results are not listed.

System: CD2F1 mice, L1210 leukemia ip, survival T/C
Assay: NCI In Vivo Anticancer Drug Screen. Data for tumor model L1210 Leukemia (intraperitoneal) in CD2F1 (CDF1) mice
Details: higher = longer survival
Procedure, shortened: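 Each value reflects a quotient of treated over vehicle control outcomes in mice with a transplanted tumor.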

O=C1c2c(O)ccc(O)c2C(=O)c2c(NCCNCCO)ccc(NCCNCCO)c21
T/C (endpoint: mean survival time, dose: 0.13 mg/kg/injection, schedule: Q01DX005 (iv), vehicle: clinical formulation): 106 % of control | T/C (endpoint: mean survival time, dose: 0.13 mg/kg/injection, schedule: Q01DX005 (iv), vehicle: saline): 102 % of control | T/C (endpoint: mean survival time, dose: 0.13 mg/kg/injection, schedule: Q01DX009 (ip), vehicle: water): 118 % of control | T/C (endpoint: mean survival time, dose: 0.25 mg/kg/injection, schedule: Q01DX009 (ip), vehicle: saline): 291 % of control | T/C (endpoint: mean survival time, dose: 0.5 mg/kg/injection, schedule: Q01DX005 (ip), vehicle: water): 200 % of control | T/C (endpoint: mean survival time, dose: 0.5 mg/kg/injection, schedule: Q01DX009 (ip), vehicle: clinical formulation): 320 % of control | T/C (endpoint: mean survival time, dose: 0.5 mg/kg/injection, schedule: Q01DX009 (ip), vehicle: saline): 285 % of control | T/C (endpoint: mean survival time, dose: 0.75 mg/kg/injection, schedule: Q01DX009 (ip), vehicle: saline): 276 % of control | T/C (endpoint: mean survival time, dose: 1.0 mg/kg/injection, schedule: Q01DX005 (ip), vehicle: water): 239 % of control | T/C (endpoint: mean survival time, dose: 1.0 mg/kg/injection, schedule: Q01DX005 (iv), vehicle: clinical formulation): 286 % of control | T/C (endpoint: mean survival time, dose: 1.0 mg/kg/injection, schedule: Q01DX009 (ip), vehicle: clinical formulation): 535 % of control | T/C (endpoint: mean survival time, dose: 1.0 mg/kg/injection, schedule: Q01DX009 (ip), vehicle: saline): 468 % of control | T/C (endpoint: mean survival time, dose: 1.0 mg/kg/injection, schedule: Q01DX009 (ip), vehicle: water): 157 % of control and 163 % of control | T/C (endpoint: mean survival time, dose: 1.5 mg/kg/injection, schedule: Q01DX009 (ip), vehicle: saline): 258 % of control and 261 % of control | T/C (endpoint: mean survival time, dose: 2.0 mg/kg/injection, schedule: Q01DX005 (ip), vehicle: water): 294 % of control | T/C (endpoint: mean survival time, dose: 2.0 mg/kg/injection, schedule: Q01DX005 (iv), vehicle: clinical formulation): 90 % of control | T/C (endpoint: mean survival time, dose: 2.0 mg/kg/injection, schedule: Q01DX009 (ip), vehicle: saline): 297 % of control | T/C (endpoint: mean survival time, dose: 2.0 mg/kg/injection, schedule: Q01DX009 (ip), vehicle: water): 160 % of control and 195 % of control | T/C (endpoint: mean survival time, dose: 4.0 mg/kg/injection, schedule: Q01DX009 (ip), vehicle: clinical formulation): 86 % of control | T/C (endpoint: mean survival time, dose: 4.0 mg/kg/injection, schedule: Q01DX009 (ip), vehicle: saline): 89 % of control | T/C (endpoint: mean survival time, dose: 4.0 mg/kg/injection, schedule: Q01DX009 (ip), vehicle: water): 124 % of control and 107 % of control | T/C (endpoint: median survival time, dose: 0.25 mg/kg/injection, schedule: Q01DX009 (ip), vehicle: water): 162 % of control and 172 % of control | T/C (endpoint: median survival time, dose: 0.5 mg/kg/injection, schedule: Q01DX009 (ip), vehicle: water): 261 % of control and 361 % of control | T/C (endpoint: median survival time, dose: 1.0 mg/kg/injection, schedule: Q01DX009 (ip), vehicle: water): 340 % of control and 361 % of control | T/C (endpoint: median survival time, dose: 2.0 mg/kg/injection, schedule: Q01DX009 (ip), vehicle: water): 121 % of control and 253 % of control | T/C (endpoint: median survival time, dose: 3.0 mg/kg/injection, schedule: Q04DX003 (ip), vehicle: saline): 318 % of control | T/C (endpoint: median survival time, dose: 4.0 mg/kg/injection, schedule: Q01DX009 (ip), vehicle: water): 120 % of control and 89 % of control | T/C (endpoint: median survival time, dose: 10.0 mg/kg/injection, schedule: Q01DX001 (iv), vehicle: saline): 244 % of control | T/C (endpoint: median survival time, dose: 16.7 mg/kg/injection, schedule: Q01DX001 (iv), vehicle: saline): 495 % of control
